Publication PMC10726135
The list shows a part of the results. At the low end of the ranking the order means little. Measured with an extract: partners may take part in the binding.

Molecular target: T1, HNF4alpha2 (COS-7 nuclear extract) (UniProt P41235)
T1 sequence: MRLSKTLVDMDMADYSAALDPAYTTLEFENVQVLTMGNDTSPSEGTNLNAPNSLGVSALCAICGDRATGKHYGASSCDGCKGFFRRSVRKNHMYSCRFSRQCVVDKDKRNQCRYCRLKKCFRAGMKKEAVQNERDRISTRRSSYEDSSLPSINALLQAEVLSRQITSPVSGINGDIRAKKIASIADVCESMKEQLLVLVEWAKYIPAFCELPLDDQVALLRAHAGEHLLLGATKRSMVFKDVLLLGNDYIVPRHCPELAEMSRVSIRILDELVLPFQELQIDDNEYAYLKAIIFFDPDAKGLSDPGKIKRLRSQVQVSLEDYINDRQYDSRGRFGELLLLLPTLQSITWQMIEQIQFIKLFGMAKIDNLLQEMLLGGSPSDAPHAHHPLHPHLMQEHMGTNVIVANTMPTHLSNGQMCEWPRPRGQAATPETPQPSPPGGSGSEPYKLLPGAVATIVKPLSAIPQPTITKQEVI
Test: protein-binding microarray
Details: COS-7 nuclear extract on double-stranded Agilent 4x180k PBM; binding buffer, salt, pH and temperature not given; high values mean tight binding; double strand, one strand shown; sequences stand for … in …GCCTAGGGAGATTAGAGTATCGGTCGA

| Sequence | binding signal (log2 normalized intensity) |
| --- | --- |
| AGTATGCCACTGGTTAGTTCCAAAGGACAA | 1.43 |
| TTCTCTAGATGTCCCAGTAGATAACTTCAA | 0.2 |
| GTACCTTGACCTTCTCTGTTAACCCTTTGC | 3.76 |
| CCTTGTGAGCAGGATTATAGTTTATCTACC | 0.884 |
| ATGGATTTGATAGAGTGATAGCATGGTTTA | 0.713 |
| AAGGCAAAAGAGACAGGACTTTACAAAGTA | -1.25 |
| TACACTGCCTCCTTCAAGGATTAGCAGATA | -1.15 |
| AACCCTTGCACTGCTGGTTTTTGTCAAAGA | 0.709 |
| GCACCCCTGCCCCCATGTTGTTCAAGGGTC | 4.54 |
| TGCATAAGGACCTCCTGAGATAGGTATGAT | 0.777 |
| TCAGCTGGTCCTTCAAGTGTGACCCTGAAC | 3.65 |
| GAAAGAGCCCCTTTGTCCATTATCTCACTT | 0.558 |
| CTCCATTTCCTTCTAGCTCCCCAATAGACA | 3.46 |
| CAGACCAGTAACCTAAGTCAGGAAACTGAC | -1.08 |
| AGACAACCTTTGGTCACTTGTAAGATACTG | 2.43 |
| AGGGTGTTGTGGAATGTGCTTGGACCTGCT | 1.99 |
| GCCTTTTATCCCTTTTGAGGCTGGAGGATC | 0.747 |
| TCACAATAGGGTTCAAACTCCTATGTGAAT | 1.39 |
| ACAAACCTTATCTCTCAAGGTTCCCAGCTA | -1.18 |
| TCCAAATCTAAGATATATCACCTGCCAGCT | -1.1 |
| AGAATGGAGAAAACAACATTCCTTGTGTTT | 1.09 |
| TACTTAGTGGCTCCTAGAATTATCCCACCC | 2.63 |
| TCAGAGGCTGATTTCTCAGGAAGTGCTTGT | 0.636 |
| TCCATCATTTTTCTCTCTTGGACTCTTGGA | 4.26 |
| CATTTTTCTCTCTTGGACTCTTGGACTCCC | 6.63 |

| Sequence | binding signal (log2 normalized intensity) |
| --- | --- |
| CAGGTCTCTTTTATGTACCACCGTATTCCT | 1.45 |
| ATGGTTAAGGTGAAAGTCCGACTTTTAAGA | 3.23 |
| AAAAGCTTTTCTTCCCCCCTCCCTCCGCAA | 5.71 |
| CTGAACCTTGCACTATTGACCCAGTGAAAC | 2.82 |
| CATTTTACAGTGCCATTTATCAGTGATTTC | 0.854 |
| CTTCCCTAAGCAGCTGCAGTTTCTGCTATC | -1.14 |
| GCCGGGAAGATGCCAGCCCCGAGATAACCC | 3.22 |
| GGGAATGGCTCGTATGAATGTGGGAAGCTG | -1.13 |
| CGGTCACATTCCACTCAGTCTCTTGAAATC | 0.656 |
| CCTCCTCCTTGGCTCTCCCCACTTACTTCC | 2.29 |
| GGTCGGGGAGGTGTTTATCTTGTGGTTGGA | 2.4 |
| GCCTGAACTGACTGCATTCCCTTTCTCCTC | -1.12 |
| ATTTATCAAGATGAACTTTGACCCACCTAC | 8.26 |
| AGAGAGAGGTGGGCAAAGGTCTCAAGGCCT | 1.58 |
| TCAAATATTTGGATAATGTGCCCTTTGTAC | 6.6 |
| AGAGAACTGAAAAAGGGGACCGGCCTTTCC | -1.17 |
| CTGTGTCTTGGCAGTGATCAGTGTTGAGAA | 1.27 |
| TACAGAGTATAATAAAGTGGCAACCCTTGA | 1.12 |
| TTACTCATGTGGTCCTAAGACTAACCTTTG | 3.37 |
| ATAAGTTTTCTCATAAAACACCCACCTTGT | -0.452 |
| TGAAAAGAGTGATCTTTGGGCCATATTGAC | 1.15 |
| GCCTGAATGCAGGGAGCAGAGTCCCAAGCA | -1.1 |
| ACAGTAAAGAACAAACTTCCCCTGCAGCTG | -1.12 |
| TGGTCCCATAGGAAAGTGAGCATGGGCTTA | -1.06 |
| AAGTGACTTCAAGGGAGTAAAGGTCGTTCT | 5.01 |

| Sequence | binding signal (log2 normalized intensity) |
| --- | --- |
| GTAGACACTCATCCCTTGCACTGCTCAGGG | -0.883 |
| GCGGAAGCACACACGAGCTGTGCGCTTAGT | -1.14 |
| GGCGGGGCAGCAGGGAAGAGCCGGCCGGCG | -1.14 |
| CTGTGCAAGCCCCTGACCAAGGGTCATGCT | 3.17 |
| GGTTCAAAGTGTAGCGCAGCCAGTTCTGGA | -1.02 |
| TCTGCTGTTCTTGCCTGATAGCATCGTGGG | 1.41 |
| CTTGGGGTAATCTCCCAATCTCGAGATCAT | -1.18 |
| GAGAAAGAGGGGAAGGATGAATTTAAAAAA | -1.23 |
| TAAAGTGTCTCCCTCTGCAGCAAAGTCCAG | 2.01 |
| TCTTTATTCGTGAGTTTTCCATTTACCTCC | 1.01 |
| ACAGCGTACTGTGCTAAAGAGTGATTGAAG | -1.13 |
| CTCGCAGAAAGTGGCCGGACAGGTTGGGTC | 1 |
| TCCTGTTTGTCAGCATCTTCACCGTAAAGC | 0.344 |
| ACTGGTGTTGCTCAAATATTTGGAGAGCAG | 0.77 |
| CTATGTGAGGAATCTAAGATAAGCAGCATT | -1.04 |
| AGCCAAAATAAAGCAGCAAACCAGATAAGA | -1.19 |
| GTTGCCTGTGAGTCAGGTACCTGCTTCTGC | 0.713 |
| GGTCGAAAGGCAGGCAGTGGAGGGCTCCCT | -1.15 |
| TAAAGGCTTTTAAAGGCTAGTGAAACATGC | -0.739 |
| GCAAAGTGGCTAGGACCTTTGAACCAGAGA | 4.44 |
| TTTTCCACCCTCCCCTCCCCCTCCTCCCCT | 7.13 |
| GTCAGCTTCAGCCAGATAGCCACTGGGGTC | 2.25 |
| CGCCCCCATTATCTCCTTAGGTACTTTTCT | 0.449 |
| GAGGTCACCCTGTGTCAGCGACTGGGCAGT | -1.21 |
| GGAGCCCCCTGGGGGAGGTTTCCTGCTGTC | -0.946 |

| Sequence | binding signal (log2 normalized intensity) |
| --- | --- |
| CCTTTTGTGTAGGAGTACACTCAGCACACC | 1.16 |
| GCTGCTTTAGACATGAGATAGCATTCCAAG | -1.23 |
| GGGTATAACCTTCTTCTATGCCCTCTTCTG | 2.43 |
| CAGGGATTATTAATTTACTGAAAAGTCTAC | -1.15 |
| GGATTATGGAGATGGAGATGGCCTGGAGGT | 1.06 |
| AATTATCCAGATCAAGGATTTTTTCTTGGA | -1.12 |
| CGACCTGCTGGACGGGAGGAAAACTGGGCA | -1.32 |
| TCTTCCTTTCTATCAGCTCTCCGTGGACTT | 3.08 |
| CTGAGCAGGGTCCAACCCACAGGGGTAGAA | -0.649 |
| TTTCCTGCCTGCCGGCTCTGAAGAGAACGG | -1.12 |
| CTAGCTCACTGATAAGAAAGGCTTCTGGGA | -1.3 |
| AAAAATATTGAACAAAGATTGCTTGCCAGT | 0.996 |
| ACTGGAAGCAAGCCCTATTAGGCATTTCAT | -1.06 |
| TCAATCCTGGCCTCTGAGGTGTTAACCTGA | 0.695 |
| ATTATCAGTAACTCACTATCAGGAAACTCT | -1.04 |
| CAAGCAAACACACTTGCTCTAATCCTTTAA | -1.06 |
| CTTCCTCATGATCGCTTCCAGGGTTACCGG | 0.203 |
| CAGTGGGGGGGGGGGGGGGGGTGTGTCTGT | 1.34 |
| TTCGGTGTCATCTAGACCTGGACTTGAAGC | 1.71 |
| AGGTAATGGTCTCTCCCAGCGGGTCATTAA | 0.927 |
| TATGTGAGTACACACTGTAAAATTTCATGG | 0.0982 |
| GGGGCGCGGCCTAATGCCTGGGAAAATGTT | -1.09 |
| GGGAGCAGTGGGCATATCTTTTTATCTCTG | 0.0411 |
| GGAATGCAGCTCAGACTGCTTCTCTGCTGG | -1.01 |
| AGTTTTGCAACATACTGAAAAAGGGTTGTG | 0.751 |

| Sequence | binding signal (log2 normalized intensity) |
| --- | --- |
| CGTAATCCCAGCTTATGTTTGCAAGTCGAG | 1.55 |
| AACCTCAGTGTTTGCTCCTAAGGCCTTCAA | -1.08 |
| AAGGAGAGGGGGCGGGGAGAGGGAAGAGTC | -1.18 |
| AGGGGCCCACCTCCACTCTCATAAAAGAGG | -1.11 |
| TCTTTGCCCCAGCTCGCTCAGCTGGTTGCC | -1.03 |
| TGAGAATCTGACCTTTGGTTAACTTCTTAA | 4.02 |
| TCCACTGTGTTCTTGTTTGCTAAGTGAGAA | 1.16 |
| CAGTCTCAGTGGGCTAAACATCAAGACAGG | -1.05 |
| CCTAATGGGGTACTTGAACCCTACTCATAA | 1.56 |
| AAGCCCCAAATCTAGCATCAGTGAGTCAAG | 0.607 |
| AGAAAGCAAAGTCCCTGGGGACAGGGATTA | -0.815 |
| CCCAGGTACGGAGGACAGCCACCCGTGCTT | -0.928 |
| CTGCAGATTCCACCTTAGAGGGACGAAGGT | -1.09 |
| CCCCATCGCACGGCAGAACTGGTGACCGGA | 1.66 |
| TGTGGTTATCTGTTGGGGAATCAGTCCATA | 1.39 |
| TTATCCCAAATGTTTGCACTGAGGAATGGA | 1.19 |
| GAGTGGACTTTGGCTTATGCAAATGTTATG | 4.25 |
| AAACGATGTGAGGTCTCTGCATACCAGGTA | -1.24 |
| CTGCCAGGGAGACAAAGTGTCACAAACTAT | -1.23 |
| AAGAGCCGGCCGGCGGGGTCACGTGGGGCC | 2.81 |
| AAGAGTCAAAGGGCAAAGGAATAAAATAGC | -0.272 |
| GTATCTAATCTCAGATATGCTAATTAACCC | 1.79 |
| GGACTCATTCTCCCCTGGAGTCTTAAATCC | -0.15 |
| TATCAGGTGGTGATGGTGGGAGGGAGGCTT | -1.09 |
| AGGAGCCTTCCGGAGGCTCTGCTGAAGAGA | -1.19 |

| Sequence | binding signal (log2 normalized intensity) |
| --- | --- |
| TCCATTTAGCTTCAGTCTAAATGATGGCCA | 1.44 |
| CCAAATCATGGAGGTGTGGGGAGTTCCTTC | 0.0523 |
| GTGCCTCAACCGAGCGTCCAAGCTCTTTCC | -1.12 |
| TTTAAAAAAATTCCTCCTTGGATTCCTAAG | -1.09 |
| AAGGTTTGTTCTTATCATGCTGTCTCTGAA | 0.885 |
| GTGTGGCAGAAAACGCAATTGCCCTACAGC | -0.277 |
| GGAAGTGGCTAGAGGTCGCGAGAGAACTGA | -0.898 |
| ATTTTCCCATGGTCTGTAGAAGGCGCTGTG | -1.23 |
| AGCCTCTCACAGTAGCCCAGGTCCTTTGGT | 0.178 |
| ACCCTCAGACACACAGTCCACAGGCTATAG | -1.11 |
| GAGGAGACCTTTGGATATCATATCATCTTC | 1.32 |
| TCACTGTGAAGACGTTAGGGGGCAGCAGGG | -0.462 |
| ATTACCCTATGTCCCCCGACCCGCCCGACT | 5.9 |
| CCAATAGACATAACTCAAACATCTGACAGA | -1.17 |
| AAAAGTAGATTGTTATTTACCCTACATGGC | -0.866 |
| AATCATCGCACCTAAGGGCACCCTTCCTGC | -1.19 |
| ACAGCGCCGCCACCCGGTTGGCGCCAATAC | -1.16 |
| ACCTGACCCAGGCGAGGGTTGCTGCACCGA | -1.21 |
| TCAGTTGCAGAAAAACAGGTTCTGCAACAC | 0.883 |
| GAGACTCTCTCTCCTCTCCAGCCCATCCTA | 2.36 |
